± gives the standard deviation of the averaged measurements. The full ranking holds about 33,000 sequences; the median of “E-score (dimensionless, -0.5 to 0.5)” is about -0.049, and the highest 2% start at about 0.37. This is one part of the list.
These sequences were tested on T1, PmTbr T-box DNA-binding domain (GST fusion) (assay: PBM E-score of 8-mer (E-score (dimensionless, -0.5 to 0.5)); Tbr is Tbrain of the sea star Patiria miniata (Pm) or the sea urchin Strongylocentrotus purpuratus (Sp); higher = stronger binding preference; most listed sequences are background and not binding sites). Conditions: the construct has about 5 more residues each side.
T1 sequence: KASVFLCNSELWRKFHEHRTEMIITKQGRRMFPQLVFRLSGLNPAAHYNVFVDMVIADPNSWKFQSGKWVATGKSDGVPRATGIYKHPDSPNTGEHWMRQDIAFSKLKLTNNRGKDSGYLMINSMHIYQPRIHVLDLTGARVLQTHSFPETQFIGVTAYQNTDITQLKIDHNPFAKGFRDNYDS
Protocol: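 Universal protein-binding microarray (Agilent AMADID 016060, 60-bp probes with a 35-bp variable region) incubated with 200 nM GST-fused Patiria miniata Tbr T-box DNA-binding domain (residues 272-466) in PBS pH 7.5. Scored for every ungapped 8-mer (given with its reverse complement) by the Universal PBM Analysis Suite as E-score (modified Wilcoxon-Mann-Whitney enrichment, range -0.5 to 0.5; >0.45 counts as bound) and Z-score of median probe intensity. Two replicate arrays (datasets 1 and 2).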
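Further: 200 nM protein in PBS on universal arrays averaged over duplicate arrays.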

| Sequence | PBM E-score of 8-mer |
| --- | --- |
| CAATACTA | -0.0307 ± 0.0042 |
| AACAAGCG | 0.0684 ± 0.037 |
| TACCGAAA | -0.246 ± 0.014 |
| TACACAGA | -0.274 ± 0.054 |
| CCTTACAC | 0.307 ± 0.017 |
| AAGAAGCT | -0.11 ± 0.044 |
| ATGCTTAG | -0.105 ± 0.051 |
| CTTAGCGA | 0.184 ± 0.025 |
| GCGTTGCC | 0.203 ± 0.034 |
| AGCGCCTG | 0.182 ± 0.02 |
| GACCATTA | 0.0379 ± 0.008 |
| ACTTACAC | 0.249 ± 0.014 |
| CAATGTCG | 0.119 ± 0.014 |
| AATGAGTC | -0.0656 ± 0.019 |
| GGACGCCA | -0.0634 ± 0.11 |
| CATAGGGG | -0.127 ± 0.015 |
| GCCGACCA | -0.153 ± 0.093 |
| ACAAATGA | -0.112 ± 0.006 |
| AGACTACT | -0.2779 ± 0.00068 |
| CGAGCCGC | 0.0246 ± 0.042 |
| ATCCTAAC | 0.055 ± 0.015 |
| AGGTAAGG | 0.00624 ± 0.019 |
| TGAGCTAA | -0.0125 ± 0.0044 |
| AGAGACAA | -0.133 ± 0.017 |
| GATAGGCA | -0.121 ± 0.014 |

| Sequence | PBM E-score of 8-mer |
| --- | --- |
| CAAACTCC | -0.0241 ± 0.05 |
| GGAGCTAA | -0.211 ± 0.029 |
| AACATGGT | 0.0819 ± 0.038 |
| ATGGTCAG | -0.181 ± 0.026 |
| GAACTGGA | -0.175 ± 0.037 |
| TATGAAAA | -0.1 ± 0.13 |
| CGCGTGAA | 0.398 ± 0.033 |
| AGGATTAA | -0.0767 ± 0.062 |
| GACTTGAC | 0.137 ± 0.022 |
| AATGAAGC | -0.208 ± 0.076 |
| CCCTGTCC | -0.0624 ± 0.018 |
| CCGTCTTA | -0.126 ± 0.05 |
| AATCGCTG | -0.0604 ± 0.024 |
| CGAATGTA | -0.0853 ± 0.024 |
| GCGGCAAA | 0.18807 ± 7.8e-05 |
| AATCCCCC | -0.301 ± 0.024 |
| ATGTAATC | -0.148 ± 0.016 |
| CGCCATTA | 0.0423 ± 0.0011 |
| CTGCAAAC | -0.0304 ± 0.00092 |
| CAGCAAGA | -0.0656 ± 0.0013 |
| CTCCTAAA | -0.217 ± 0.0066 |
| CAATATTA | -0.137 ± 0.021 |
| TAGGAAAA | -0.238 ± 0.011 |
| ACCGCTTA | -0.264 ± 0.036 |
| AAGCTCGG | -0.0972 ± 0.0053 |

| Sequence | PBM E-score of 8-mer |
| --- | --- |
| AGAGATTG | 0.0395 ± 0.077 |
| AGAGCTGA | -0.121 ± 0.0094 |
| ATTGTTCC | -0.116 ± 0.042 |
| AGGCGGAG | -0.153 ± 0.052 |
| AGTCGGCA | 0.00896 ± 0.086 |
| GCGCAGCC | -0.0806 ± 0.044 |
| ATATAGAT | -0.118 ± 0.0054 |
| GTCGTGTA | -0.113 ± 0.021 |
| AACCCACG | -0.0612 ± 0.011 |
| CACCCCAG | 0.296 ± 0.035 |
| AATCCACA | 0.142 ± 0.032 |
| CCGTCAAC | 0.17 ± 0.063 |
| AGGTTGGG | -0.19 ± 0.09 |
| TCACCCCA | 0.277 ± 0.028 |
| AATATCCA | -0.0969 ± 0.06 |
| AGTATGAC | 0.108 ± 0.0027 |
| GAGTGGAC | -0.0288 ± 0.0039 |
| GCGATGAC | 0.129 ± 0.075 |
| AAAATGTG | 0.27 ± 0.095 |
| CCGTGATA | 0.0314 ± 0.051 |
| AAACCAGG | 0.0346 ± 0.032 |
| ACCCTCAC | 0.134 ± 0.027 |
| ATAGCTGA | -0.0524 ± 0.042 |
| GATTTCCA | 0.119 ± 0.089 |
| AAGCTAGA | -0.243 ± 0.061 |

| Sequence | PBM E-score of 8-mer |
| --- | --- |
| GGAAGATA | -0.202 ± 0.043 |
| CGCACCTC | 0.46 ± 0.012 |
| CAGTTGCA | 0.153 ± 0.0058 |
| CATGTTAC | -0.082 ± 0.053 |
| GTAGCAAA | 0.0673 ± 0.034 |
| CAGCCCCG | -0.229 ± 0.0034 |
| CCATAGCC | -0.144 ± 0.005 |
| CCGGCCGA | -0.195 ± 0.064 |
| TAGCGTCA | 0.203 ± 0.013 |
| ATCGGCAT | -0.113 ± 0.0075 |
| CACTCTTC | 0.198 ± 0.067 |
| GTTAATGA | -0.0185 ± 0.1 |
| CACGCAGG | 0.178 ± 0.013 |
| CGACAGCC | 0.0934 ± 0.031 |
| AAGACATC | -0.106 ± 0.014 |
| ATCCTGGA | -0.102 ± 0.034 |
| GGTCCATA | -0.312 ± 0.024 |
| ATGATTTC | 0.0109 ± 0.057 |
| GTGAAACA | 0.188 ± 0.036 |
| CCCCCAGG | -0.158 ± 0.029 |
| CGTAAAAC | -0.145 ± 0.089 |
| CGACATTA | 0.136 ± 0.021 |
| GTAGCCTA | -0.0631 ± 0.06 |
| GCATTGAA | -0.19 ± 0.044 |
| GTAGCGAC | 0.171 ± 0.012 |

| Sequence | PBM E-score of 8-mer |
| --- | --- |
| GGCCTAGA | -0.326 ± 0.028 |
| AGGTAGTC | -0.274 ± 0.053 |
| AGCCAGAC | -0.251 ± 0.013 |
| ACTCTGAC | 0.114 ± 0.032 |
| ACTCATCG | -0.0034 ± 0.056 |
| GACAGGAC | 0.00186 ± 0.0023 |
| GGCCAGGA | -0.197 ± 0.062 |
| CGTGTCCC | -0.0561 ± 0.065 |
| GCTAACGA | 0.274 ± 0.0092 |
| AACTTACA | 0.0426 ± 0.038 |
| CATAAATG | 0.0124 ± 0.021 |
| CATCTTTC | 0.022 ± 0.032 |
| ACACCCAT | 0.333 ± 0.021 |
| GCGCTACA | 0.131 ± 0.063 |
| AAATGTCC | -0.152 ± 0.023 |
| AAATTCCC | -0.166 ± 0.013 |
| AATGGCGT | 0.208 ± 0.06 |
| GGGGGATA | 0.000625 ± 0.059 |
| AAGGCACG | -0.0734 ± 0.0059 |
| AAGTAAGA | -0.133 ± 0.027 |
| GTGGGCAA | -0.128 ± 0.038 |
| AAGTCGCC | -0.0381 ± 0.062 |
| CAGGCAAA | -0.332 ± 0.035 |
| CCTGGACC | -0.229 ± 0.018 |
| ATCGGAAC | -0.1 ± 0.0083 |

| Sequence | PBM E-score of 8-mer |
| --- | --- |
| ACCCCACG | -0.112 ± 0.085 |
| GCGCTAAC | 0.4144 ± 0.0034 |
| CCAGAGCG | -0.218 ± 0.092 |
| ACGTCTAC | -0.1942 ± 0.0013 |
| AAATCCCC | -0.151 ± 0.024 |
| AGCCTGAA | -0.153 ± 0.018 |
| ATGCTCGC | 0.14 ± 0.0031 |
| CTAACTAA | 0.207 ± 0.013 |
| AACTTGGC | 0.0756 ± 0.007 |
| ACCATTGG | -0.068 ± 0.046 |
| ACTGACGG | 0.0814 ± 0.057 |
| ACTCCCTC | 0.00055 ± 0.049 |
| GACGCATA | 0.00583 ± 0.0042 |
| ACACACTC | 0.269 ± 0.0055 |
| AACGCCTA | 0.279 ± 0.034 |
| CATGAATA | -0.245 ± 0.015 |
| AAGTGTGG | 0.3837 ± 0.00044 |
| ATCACACA | 0.418 ± 0.01 |
| CATCGACA | 0.202 ± 0.04 |
| CGGGAACG | -0.0131 ± 0.032 |
| ACCCCGAG | 0.0296 ± 0.023 |
| AGGCCTGC | -0.202 ± 0.013 |
| AGTCCTCG | -0.164 ± 0.087 |
| GGAGCGGA | -0.17 ± 0.046 |
| TGATCAAA | -0.217 ± 0.15 |

| Sequence | PBM E-score of 8-mer |
| --- | --- |
| ATAGTAAA | -0.256 ± 0.014 |
| CAACCCGG | -0.111 ± 0.05 |
| GAAATAGC | 0.206 ± 0.06 |
| CCAGTCAC | 0.113 ± 0.011 |
| CTGCGGCA | 0.0147 ± 0.0018 |
| CGTTACCC | 0.152 ± 0.013 |
| AACCGCCA | 0.00671 ± 0.1 |
| GACGTACA | 0.0446 ± 0.026 |
| GTTTCAGA | -0.18 ± 0.083 |
| AGCGAGCC | -0.0788 ± 0.064 |
| AGAGAGTC | -0.204 ± 0.036 |
| ACCCAAGA | -0.0386 ± 0.041 |
| CCGTCGGC | -0.0171 ± 0.053 |
| AAAATTGC | 0.0481 ± 0.11 |
| CAATGGTG | 0.22 ± 0.027 |
| ATGGTTCC | -0.299 ± 0.042 |
| GTGGGAGA | 0.0219 ± 0.0053 |
| CGACCGAG | -0.0839 ± 0.0083 |
| CAACTTGC | 0.225 ± 0.025 |
| CATCGAGA | 0.142 ± 0.095 |
| CGCGCACA | 0.0752 ± 0.002 |
| AAAATGTC | 0.0857 ± 0.051 |

From the supplement of paper PMC4166925
